# Laboratory results from patent US20090311253A1 (AbbVie / Abbott, published 2009).
# T1: Recombinant Human IL-6 sR (human, UniProt P08887 20-358, limits assumed)
# T1 construct: domain: IL-6 sR; soluble receptor; also called IL-6R
# T1 sequence (looked up): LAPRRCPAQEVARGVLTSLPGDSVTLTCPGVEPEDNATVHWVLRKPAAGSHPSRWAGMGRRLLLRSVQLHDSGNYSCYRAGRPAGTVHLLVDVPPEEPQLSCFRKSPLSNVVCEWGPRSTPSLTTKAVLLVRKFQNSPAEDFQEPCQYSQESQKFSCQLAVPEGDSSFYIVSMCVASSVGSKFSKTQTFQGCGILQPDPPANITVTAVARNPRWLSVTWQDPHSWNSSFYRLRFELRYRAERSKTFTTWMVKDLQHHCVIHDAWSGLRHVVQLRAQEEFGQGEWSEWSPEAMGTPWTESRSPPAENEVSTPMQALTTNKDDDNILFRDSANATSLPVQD
# T2: Recombinant Human VEGF (human, UniProt P15692-4 27-191)
# T2 construct: also called VEGF165
# T2 sequence (looked up): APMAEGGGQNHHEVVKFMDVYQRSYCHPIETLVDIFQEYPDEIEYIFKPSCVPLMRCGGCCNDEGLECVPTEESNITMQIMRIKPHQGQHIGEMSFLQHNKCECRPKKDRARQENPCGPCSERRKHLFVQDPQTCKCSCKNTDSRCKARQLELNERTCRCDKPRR
# T3: IL-6R on cells (UniProt P08887 20-468, limits assumed)
# T3 construct: whole, on cells
# T3 sequence (looked up): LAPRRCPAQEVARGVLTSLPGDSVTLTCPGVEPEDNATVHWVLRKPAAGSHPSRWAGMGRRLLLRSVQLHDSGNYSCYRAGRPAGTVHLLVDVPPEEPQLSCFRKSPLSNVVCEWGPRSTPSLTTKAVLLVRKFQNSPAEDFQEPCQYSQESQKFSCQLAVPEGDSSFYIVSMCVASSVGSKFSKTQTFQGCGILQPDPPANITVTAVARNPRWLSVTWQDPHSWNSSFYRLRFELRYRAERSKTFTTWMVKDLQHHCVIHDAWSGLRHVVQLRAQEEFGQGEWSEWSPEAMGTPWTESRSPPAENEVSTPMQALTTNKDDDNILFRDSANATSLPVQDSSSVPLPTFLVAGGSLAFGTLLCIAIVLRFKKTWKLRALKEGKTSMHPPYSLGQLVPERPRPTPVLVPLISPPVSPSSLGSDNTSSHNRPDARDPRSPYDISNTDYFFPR
# What was measured:
# Recombinant Human IL-1β [1] = target: T4, Recombinant Human IL-1β (human, UniProt P01584 117-269); test: cell-based or functional assay
# Recombinant Human IL-17 [2] = target: T5, Recombinant Human IL-17 (human, UniProt Q16552 20-155, limits assumed); test: cell-based or functional assay
# Recombinant Human IL-17 [3] = target: T5, Recombinant Human IL-17; test: Biacore SPR
# Procedure: (§1) The BIACORE assay (Biacore, Inc, Piscataway, N.J.) determines the affinity of antibodies or DVD-Ig with kinetic measurements of on-rate and off-rate constants. Binding of antibodies or DVD-Ig to a target antigen (for example, a purified recombinant target antigen) is determined by surface plasmon resonance-based measurements with a BiacoreR 1000 or 3000 instrument (Biacore® AB, Uppsala, Sweden) using running HBS-EP (10 mM HEPES [pH 7.4], 150 mM NaCl, 3 mM EDTA, and 0.005% surfactant P20) at 25° C. All chemicals are obtained from Biacore® AB (Uppsala, Sweden) or otherwise from a different source as described in the text. For example, approximately 5000 RU of goat anti-mouse IgG, (Fcγ), fragment specific polyclonal antibody (Pierce Biotechnology Inc, Rockford, Ill.) diluted in 10 mM sodium acetate (pH 4.5) is directly immobilized across a CM5 research grade biosensor chip using a standard amine coupling kit according to manufacturer's instructions and procedures at 25 μg/ml. Unreacted moieties on the biosensor surface are blocked with ethanolamine. Modified carboxymethyl dextran surface in flowcell 2 and 4 is used as a reaction surface. Unmodified carboxymethyl dextran without goat anti-mouse IgG in flow cell 1 and 3 is used as the reference surface. For kinetic analysis, rate equations derived from the 1:1 Langmuir binding model are fitted simultaneously to association and dissociation phases of all eight injections (using global fit analysis) with the use of Biaevaluation 4.0.1 software. Purified antibodies or DVD-Ig are diluted in HEPES-buffered saline for capture across goat anti-mouse IgG specific reaction surfaces. Antibodies or DVD-Ig to be captured as a ligand (25 μg/ml) are injected over reaction matrices at a flow rate of 5 μl/min. The association and dissociation rate constants, kₒₙ (M⁻¹s⁻¹) and koff (s⁻¹) are determined under a continuous flow rate of 25 μl/min. Rate constants are derived by making kinetic binding measurements at different antigen concentrations ranging from […]. The equilibrium dissociation constant (M) of the reaction between antibodies or DVD-Igs and the target antigen is then calculated from the kinetic rate constants by the following formula: KD=koff/kₒₙ. Binding is recorded as a function of time and kinetic rate constants are calculated.
# Recombinant Human IL-1β [4] = target: T4, Recombinant Human IL-1β; test: direct bind ELISA
# Procedure: (§2) Enzyme Linked Immunosorbent Assays to screen for antibodies that bind a desired target antigen were performed as follows. High bind ELISA plates (Corning Costar # 3369, Acton, Mass.) were coated with 100 μL/well of 10 μg/ml of desired target antigen (R&D Systems, Minneapolis, Minn.) or desired target antigen extra-cellular domain/FC fusion protein (R&D Systems, Minneapolis, Minn.) or monoclonal mouse anti-polyhistidine antibody (R&D Systems # MAB050, Minneapolis, Minn.) in phosphate buffered saline (10×PBS, Abbott Bioresearch Center, Media Prep# MPS-073, Worcester, Mass.) overnight at 4° C. Plates were washed four times with PBS containing 0.02% Tween 20. Plates were blocked by the addition of 300 μL/well blocking solution (non-fat dry milk powder, various retail suppliers, diluted to 2% in PBS) for ½ hour at room temperature. Plates were washed four times after blocking with PBS containing 0.02% Tween 20.
# (§3) Plates were washed 4 times with PBS containing 0.02% Tween 20.
# (§4) One hundred microliters of enhanced TMB solution (Neogen Corp. #308177, K Blue, Lexington, Ky.) was added to each well and incubated for 10 minutes at room temperature. The reaction was stopped by the addition of 50 μL 1N sulphuric acid. Plates were read spectrophotometrically at a wavelength of 450 nm.
# Recombinant Human IL-17 [5] = target: T5, Recombinant Human IL-17; test: direct bind ELISA
# Procedure: as §2, §3, §4
# [6] = target: T1, Recombinant Human IL-6 sR; test: direct bind ELISA
# Procedure: as §2, §3, §4
# Recombinant Human VEGF = target: T2, Recombinant Human VEGF; test: direct bind ELISA
# Procedure: as §2, §3, §4
# IL-6R on cells = target: T3, IL-6R on cells; test: flow cytometry on cells, 2 µg/mL
# Procedure: Stable cell lines overexpressing a cell-surface antigen of interest or human tumor cell lines were harvested from tissue culture flasks and resuspended in phosphate buffered saline (PBS) containing 5% fetal bovine serum (PBS/FBS). Prior to staining, human tumor cells were incubated on ice with (100 μl) human IgG at 5 μg/ml in PBS/FCS. 1−5×10⁵ cells were incubated with antibody or DVD-Ig (2 μg/mL) in PBS/FBS for 30-60 minutes on ice. […] After 30 minutes incubation on ice, cells were washed twice and resuspended in PBS/FBS. Fluorescence was measured using a Becton Dickinson FACSCalibur (Becton Dickinson, San Jose, Calif.).
# The geometric mean is the n root of the multiplication product of n fluorescent signals (a1×a2×a3 . . . an). With log-transformed data the geometric mean is used to normalize the weighting of the data distribution.
# Recombinant Human IL-1β [7] = target: T4, Recombinant Human IL-1β; test: Biacore SPR
# Procedure: as §1
"IL-1β Neutralization Assay EC50 (MRC5 cells, hIL-8) (Recombinant Human IL-1β [1]) [nM]","IL-17 Neutralization Assay EC50 (HS27 cells, IL-6 secretion) (Recombinant Human IL-17 [2]) [nM]",Kd (Recombinant Human IL-17 [3]) [nM],koff (Recombinant Human IL-17 [3]) [s⁻¹],kon (Recombinant Human IL-17 [3]) [M⁻¹ s⁻¹],EC50 (Recombinant Human IL-1β [4]) [nM],EC50 (Recombinant Human IL-17 [5]) [nM],EC50 [6] [nM],EC50 (Recombinant Human VEGF) [nM],FACS Geometric Mean (IL-6R on cells),Kd (Recombinant Human IL-1β [7]) [nM],koff (Recombinant Human IL-1β [7]) [s⁻¹],kon (Recombinant Human IL-1β [7]) [M⁻¹ s⁻¹],Binder
28,0.54,0.307,6.66e-05,217000,1200,0.58,,,,,,,"DVD122 (bispecific antibody, human IgG1, kappa, outer AB029, inner AB032; vectors V1, V2) heavy: EVQLVESGGGLVQPGGSLRLSCAASGFTFSNYWMNWVRQAPGKGLEWVAAINQDGSEKYYVGSVKGRFTISRDNAKNSLYLQMNSLRVEDTAVYYCVRDYYDILTDYYIHYWYFDLWGRGTLVTVSSASTKGPQVQLVESGGGVVQPGRSLRLSCAASGFTFSVYGMNWVRQAPGKGLEWVAIIWYDGDNQYYADSVKGRFTISRDNSKNTLYLQMNGLRAEDTAVYYCARDLRTGPFDYWGQGTLVTVSS[left out - human IgG1 constant region] light: [left out - about 100 residues]RTVAAPEIVLTQSPDFQSVTPKEKVTITCRASQSIGSSLHWYQQKPDQSPKLLIKYASQSFSGVPSRFSGSGSGTDFTLTINSLEAEDAAAYYCHQSSSLPFTFGPGTKVDIKRTVAAPSVFIFPPSDEQLKSGTASVVCLLNNFYPREAKVQWKVDNALQSGNSQESVTEQDSKDSTYSLSSTLTLSKADYEKHKVYACEVTHQGLSSPVTKSFNRGEC"
,,,,,,,0.96,14.5,8.23,,,,"DVD145 (bispecific antibody, human IgG1, kappa, vectors V1, V2; also called IL-6R and VEGF DVD-Ig) heavy: EVQLQESGPGLVRPSQTLSLTCTVSGYSITSDHAWSWVRQPPGRGLEWIGYISYSGITTYNPSLKSRVTMLRDTSKNQFSLRLSSVTAADTAVYYCARSLARTTAMDYWGQGSLVTVSSASTKGPEVQLVESGGGLVQPGGSLRLSCAASGYTFTNYGMNWVRQAPGKGLEWVGWINTYTGEPTYAADFKRRFTFSLDTSKSTAYLQMNSLRAEDTAVYYCAKYPHYYGSSHWYFDVWGQGTLVTVSS[left out - human IgG1 constant region] light: DIQMTQSPSSLSASVGDRVTITCRASQDISSYLNWYQQKPGKAPKLLIYYTSRLHSGVPSRFSGSGSGTDFTFTISSLQPEDIATYYCQQGNTLPYTFGQGTKVEIKRTVAAPDIQMTQSPSSLSASVGDRVTITCSASQDISNYLNWYQQKPGKAPKVLIYFTSSLHSGVPSRFSGSGSGTDFTLTISSLQPEDFATYYCQQYSTVPWTFGQGTKVEIKRTVAAPSVFIFPPSDEQLKSGTASVVCLLNNFYPREAKVQWKVDNALQSGNSQESVTEQDSKDSTYSLSSTLTLSKADYEKHKVYACEVTHQGLSSPVTKSFNRGEC"
,,,,,,,124,0.68,0.22,,,,"DVD146 (bispecific antibody, human IgG1, kappa, vectors V1, V2; also called VEGF and IL-6R DVD-Ig) heavy: EVQLVESGGGLVQPGGSLRLSCAASGYTFTNYGMNWVRQAPGKGLEWVGWINTYTGEPTYAADFKRRFTFSLDTSKSTAYLQMNSLRAEDTAVYYCAKYPHYYGSSHWYFDVWGQGTLVTVSSASTKGPEVQLQESGPGLVRPSQTLSLTCTVSGYSITSDHAWSWVRQPPGRGLEWIGYISYSGITTYNPSLKSRVTMLRDTSKNQFSLRLSSVTAADTAVYYCARSLARTTAMDYWGQGSLVTVSS[left out - human IgG1 constant region] light: DIQMTQSPSSLSASVGDRVTITCSASQDISNYLNWYQQKPGKAPKVLIYFTSSLHSGVPSRFSGSGSGTDFTLTISSLQPEDFATYYCQQYSTVPWTFGQGTKVEIKRTVAAPDIQMTQSPSSLSASVGDRVTITCRASQDISSYLNWYQQKPGKAPKLLIYYTSRLHSGVPSRFSGSGSGTDFTFTISSLQPEDIATYYCQQGNTLPYTFGQGTKVEIKRTVAAPSVFIFPPSDEQLKSGTASVVCLLNNFYPREAKVQWKVDNALQSGNSQESVTEQDSKDSTYSLSSTLTLSKADYEKHKVYACEVTHQGLSSPVTKSFNRGEC"
0.04,14.9,,,,9.78,12.2,,,,0.0619,7.52e-05,1.22e+06,"DVD121 (bispecific antibody, human IgG1, kappa, outer AB032, inner AB029; vectors V1, V2) heavy: QVQLVESGGGVVQPGRSLRLSCAASGFTFSVYGMNWVRQAPGKGLEWVAIIWYDGDNQYYADSVKGRFTISRDNSKNTLYLQMNGLRAEDTAVYYCARDLRTGPFDYWGQGTLVTVSSASTKGPEVQLVESGGGLVQPGGSLRLSCAASGFTFSNYWMNWVRQAPGKGLEWVAAINQDGSEKYYVGSVKGRFTISRDNAKNSLYLQMNSLRVEDTAVYYCVRDYYDILTDYYIHYWYFDLWGRGTLVTVSS[left out - human IgG1 constant region] light: EIVLTQSPDFQSVTPKEKVTITCRASQSIGSSLHWYQQKPDQSPKLLIKYASQSFSGVPSRFSGSGSGTDFTLTINSLEAEDAAAYYCHQSSSLPFTFGPGTKVDIKRTVAAP[left out - about 100 residues][left out - about 100 residues]"
